Source: PubChem BioAssay AID652106 (National Center for Advancing Translational Sciences (NCATS), 2013)
The whole screen tested about 370,000 compounds, of which about 500 (0.14%) were called active. This list was built around the results that the source calls inconclusive (neither active nor inactive); the mix of calls is not that of the screen. Calls come from the whole dose curve; as a rule, active = well fitted activation curve with a large enough effect; inconclusive = small, poorly fitted or top-dose-only effect; inactive = no such curve, though single readings can be large or run the other way. No potency is given beside an inconclusive call; the fits are too rough.
Potency is the fitted concentration of half-maximal effect; tags give direction and shape of the fitted curve.

Assay: qHTS of alpha-syn Inhibitors; note: nearly all actives have a fitted effect of over 65% in size; for growth rescue (activation): % of control where 0% means no effect
Conditions: Yeast expressing alpha-synuclein, BacTiter-Glo, 24 h; Potency: growth rescue unless noted; growth rescue (activation): at 46.1 µM (top of the series) unless noted
Excerpt: The goal of this project is to identify new chemical probes capable of reversing the toxicity associated with the Parkinson disease-related protein, alpha-synuclein. Compounds will be selected on their ability to restore growth in yeast cells expressing toxic levels of alpha-synuclein. These compounds will provide a complementary approach to deciphering the tangled mechanisms of toxicity and protection that we have uncovered through genome-wide genetic screens and are beginning to uncover in a large-scale proteomics analysis with mass spectroscopy. To this end, a miniaturized assay was developed to be screened against the Molecular Libraries Small Molecule Repository (MLSMR) to discover alpha-synuclein inhibitors. Please note that in the set-up this yeast-based assay compounds that inhibit as alpha-syn, have a read-out as activators. NIH Chemical Genomics Center [NCGC] NIH Molecular Libraries Probe Centers Network [MLPCN] MLPCN Grant: NS060957 Assay Submitter (PI): Susan Lindquist, Whitehead Institute/MIT
Dispense 2.5 microL yeast galactose medium per 1536-well plate, pin compound, dispense 2.5 microL alpha-synuclein expressing yeast in galactose medium at OD600=0.02 (pregrown in raffinose medium to mid-log phase) per well, incubate for 24 hr at 30 deg C, and cell growth will be measured using 5 microL of Bactiter/Glo reagent to entire plate and read using Luminescence Protocol in ViewLux.
For Cc1onc(-c2ccccc2)c1C(=O)NCc1cccnc1, the Potency was inconclusive [activator, single point].
With Oc1cccc(/C=N/c2c(-c3ccco3)nc3ccccn23)c1 the “growth rescue (activation)” value was inactive: -27.4%.
For O=C(Nc1nnc(C2=COCCO2)o1)c1ccc([N+](=O)[O-])cc1, the Potency was inconclusive [activator, partial curve].
For CSc1nc(C)c(Oc2ccccc2)c(=O)n1C, the “growth rescue (activation)” value was inactive: -3.29%.
With CCN(C(=O)C1CCCN(c2ncnc3onc(-c4ccc(F)cc4)c23)C1)c1ccccc1 (stereo not given) the “growth rescue (activation)” value was inactive: -5.41%.
With Cc1cc(C=Nc2ccc(/C=C/c3ccnc4ccccc34)cc2)ccc1N(C)C the “growth rescue (activation)” value was inactive: 2.73%.
For COc1ccccc1NC(=S)Nc1cccc(F)c1, the Potency was inconclusive [activator, single point].
In the case of COc1ccc(C=C(C(C)=O)C(=O)c2ccccc2)cc1, the Potency is reported as inconclusive [activator, single point].
With O=C(CSc1nnnn1C1CCCCC1)NCc1cccc(C(=O)O)c1 the Potency was inconclusive [activator, single point].
In the case of CC(=O)Nc1ccc(NC(=O)CSc2nc3[nH]ncc3c(=O)n2-c2ccccc2)cc1, the Potency is reported as inconclusive [activator, single point].
With COCCNC(=O)c1ccccc1NC(=O)CSc1ccc(C)cc1 the “growth rescue (activation)” value was inactive: 1.53%.
In the case of O=C(O)CCSc1ncnc2sc(-c3ccccc3)cc12, the Potency is reported as inconclusive [activator, single point].
With O=C(CSc1nnc(CNC(=O)c2ccco2)o1)Nc1ccccc1C(F)(F)F the Potency was inconclusive [activator, single point].
In the case of Cc1cc(C)c(S(=O)(=O)N2CCN(C3CC(=O)N(c4ccccc4Cl)C3=O)CC2)c(C)c1 (stereo not given), the Potency is reported as inconclusive [activator, single point].
With CN1CCN(C(=O)c2ccc(Cn3cc(Cl)cn3)o2)CC1 the “growth rescue (activation)” value was inactive: -9.02%.
For NC(=O)c1sc2nc(-c3ccco3)ccc2c1N, the Potency was inconclusive [activator, single point].
In the case of COc1ccc(C2CC(=O)c3cnc(NC(=O)c4ccccc4OC)nc3C2)c(OC)c1 (stereo not given), the “growth rescue (activation)” value is reported as inactive: 13.8%.
For COc1ccc(N/C=C/C(=O)c2ccc(Oc3ncccn3)cc2)cc1, the Potency was inconclusive [activator, partial curve].
In the case of Cc1ccc(C(=O)Nc2ccccc2-c2ccccc2)cc1S(=O)(=O)Nc1ccccc1, the Potency is reported as inconclusive [activator, single point].
For CCCCCCCOc1ccc(CC(=O)NO)cc1, the Potency was inconclusive [activator, single point].
With O=C(O)/C=C/C(=O)Nc1c(F)cccc1F the Potency was inconclusive [activator, partial curve, poor fit].
With Cc1ccc(-n2c(SCC(=O)NCCC3=CCCCC3)nc3n[nH]c(C)c3c2=N)cc1Cl the Potency was inconclusive [activator, single point].
For O=C(c1c[nH]c(C(=O)N2CCN(c3ccccc3F)CC2)c1)c1cccc(Cl)c1Cl, the Potency was inconclusive [activator, single point].
For CC(C)c1nnc(NC(=O)C2CCCCC2)s1, the Potency was inconclusive [activator, single point].
With CCCCn1c(N)c(N(CCOC)C(=O)c2ccc(N3CCCC3=O)cc2)c(=O)[nH]c1=O the Potency was inconclusive [activator, single point].
For CCOC(=O)CC1=NN(c2ccccc2)C(=O)/C1=C\c1ccc(OC)cc1OC, the Potency was inconclusive [activator, partial curve].
In the case of COc1ccc2ccccc2c1C1NC(=O)c2ccccc2N1 (stereo not given), the Potency is reported as inconclusive [activator, single point].
For CC(CC(=O)Nc1ccc2c(c1)c(=O)n(C)n2-c1cccs1)c1ccccc1 (stereo not given), the “growth rescue (activation)” value was inactive: -3.1%.
For CC(C)(C)n1nnnc1C(c1cc2ccccc2o1)N(Cc1ccccc1)Cc1ccccc1 (stereo not given), the Potency was inconclusive [activator, single point].
For CN(C)c1ccc(/C=C/c2ccnc3ccc(N)cc23)cc1, the “growth rescue (activation)” value was inactive: -29.7%.
For Cc1cccc(C(=O)O[C@@H]2[C@H](Cc3ccccc3)NS(=O)(=O)[C@H]3C[C@@H]4C=C[C@]23O4)c1, the Potency was inconclusive [activator, single point].
In the case of Cc1nc(Cl)c(C(=O)NC(=O)NCc2ccccc2)c(C)c1Cl, the “growth rescue (activation)” value is reported as inactive: 20.8%.
For CCOC(=O)C1=CCN(S(=O)(=O)c2ccccc2)C1c1ccc(C)cc1 (stereo not given), the Potency was inconclusive [activator, single point].
In the case of COc1ccc(S(=O)(=O)NCCCCOc2ccc(Cl)cc2)cc1, the Potency is reported as inconclusive [activator, single point].
For CCCC(C)c1nnc(NC(=O)CN2C(=O)c3ccccc3C2=O)s1 (stereo not given), the Potency was inconclusive [activator, single point].
In the case of Cc1cc(C)nc(NNS(=O)(=O)c2c(F)cc(F)cc2Br)n1, the Potency is reported as inconclusive [activator, single point].
In the case of Cc1c(Cl)cc(C(C)C)c(O)c1CN1CCOCC1, the Potency is reported as inconclusive [activator, single point].
For O=C(O)c1ccn2c(C(=O)c3ccccc3)c(-c3ccccc3)cc2c1, the Potency was inconclusive [activator, single point].
For COc1ccc(C2=CC(=O)C[C@H](c3ccc(OC)cc3)C2)cc1, the “growth rescue (activation)” value was inactive: 5.09%.
In the case of Cc1ccc(C(=O)CNc2ccc(C)c(Cl)c2)cc1, the “growth rescue (activation)” value is reported as inactive: -9.26%.
For O=C(COC(=O)c1ccccc1Br)Nc1nnc(-c2ccccc2)o1, the Potency was inconclusive [activator, single point].
For Cc1ccccc1NS(=O)(=O)c1ccc2[nH]c3c(c2c1)CCCCC3, the Potency was inconclusive [activator, single point].
With CCCN1CCC(NC(=O)CCc2nnc(-c3ccccc3)o2)CC1 the “growth rescue (activation)” value was inactive: -5.87%.
For COCCn1c(-c2ccc(NC(C)=O)cc2)nc2c1c(=O)[nH]c(=O)n2CC(C)C, the “growth rescue (activation)” value was inactive: -0.111%.
For O=C(Nc1nnc(-c2ccc3c(c2)CCCC3)o1)c1ccccc1, the Potency was inconclusive [activator, full curve].
